The text below walks through data of paper PMC4336329 (PLoS ONE, 2015).

SMILES strings stand for the structures. Out of some 310,000 compounds screened, about 2,200 (0.71%) showed an effect of 50% or more. The effect is printed as a negative number. Some of the results follow.

Chain of human ether-à-go-go-related gene (hERG) potassium channel (Q12809 whole entry, looked up): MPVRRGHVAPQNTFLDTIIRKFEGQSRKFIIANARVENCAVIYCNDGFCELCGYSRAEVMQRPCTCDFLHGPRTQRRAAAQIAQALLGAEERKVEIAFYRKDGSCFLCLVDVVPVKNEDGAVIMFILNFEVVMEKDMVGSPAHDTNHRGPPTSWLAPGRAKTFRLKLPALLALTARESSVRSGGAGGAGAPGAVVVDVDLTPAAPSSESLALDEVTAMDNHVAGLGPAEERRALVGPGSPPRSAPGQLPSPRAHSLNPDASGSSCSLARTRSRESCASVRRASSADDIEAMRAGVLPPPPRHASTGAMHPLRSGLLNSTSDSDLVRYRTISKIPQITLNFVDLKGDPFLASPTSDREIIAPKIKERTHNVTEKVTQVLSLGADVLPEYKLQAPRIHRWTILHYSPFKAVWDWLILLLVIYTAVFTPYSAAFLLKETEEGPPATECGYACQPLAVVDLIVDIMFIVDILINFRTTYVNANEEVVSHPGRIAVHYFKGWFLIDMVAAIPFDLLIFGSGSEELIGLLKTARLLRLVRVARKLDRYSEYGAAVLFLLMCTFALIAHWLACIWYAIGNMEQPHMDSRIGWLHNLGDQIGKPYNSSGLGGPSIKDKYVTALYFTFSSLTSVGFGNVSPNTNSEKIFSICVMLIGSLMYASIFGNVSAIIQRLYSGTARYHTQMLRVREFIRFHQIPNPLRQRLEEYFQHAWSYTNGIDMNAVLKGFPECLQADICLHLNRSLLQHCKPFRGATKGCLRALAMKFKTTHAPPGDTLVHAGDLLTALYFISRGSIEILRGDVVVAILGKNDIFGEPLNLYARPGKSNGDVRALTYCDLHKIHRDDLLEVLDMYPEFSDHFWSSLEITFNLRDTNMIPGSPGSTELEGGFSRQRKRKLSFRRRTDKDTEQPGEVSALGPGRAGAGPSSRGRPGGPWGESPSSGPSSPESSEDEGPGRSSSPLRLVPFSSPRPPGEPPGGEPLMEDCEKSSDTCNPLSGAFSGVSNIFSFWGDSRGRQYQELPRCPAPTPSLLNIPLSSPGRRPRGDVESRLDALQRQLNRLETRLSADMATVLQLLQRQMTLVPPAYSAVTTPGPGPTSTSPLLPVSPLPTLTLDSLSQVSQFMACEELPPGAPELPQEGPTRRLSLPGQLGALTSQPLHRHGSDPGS

The experiment addresses human ether-à-go-go-related gene (hERG) potassium channel (human, UniProt Q12809). As to the kind of experiment: primary screen, population patch clamp on CHO cells stably expressing hERG.
For the compound `Cc1cccc(OCC(=O)NNC(=O)c2cc(S(=O)(=O)N(C)C)ccc2N2CCCC2)c1`, the “hERG current change (%, negative = inhibition) at 1uM” value is recorded as 0.379%.
Take `O=C(NCC(=O)N(CC1CCCO1)C(C(=O)NC1CCCCC1)c1ccc(F)cc1)c1ccco1` (centres unmarked): the “hERG current change (%, negative = inhibition) at 1uM” value turned out to be 10.5%.
For the compound `Cc1cccc2cc3c(NC(=O)CC(C)C)nn(C)c3nc12`, the “hERG current change (%, negative = inhibition) at 1uM” value turned out to be 12.2%.
For `COc1ccc(N2CCN(Cc3nc(N)nc(Nc4ccc(C)c(Cl)c4)n3)CC2)cc1`, the “hERG current change (%, negative = inhibition) at 1uM” value was -15.1%.
As for `O=C(c1cnc2n(c1=O)CCS2)N1CCc2ccccc21`, the “hERG current change (%, negative = inhibition) at 1uM” value came to 12.4%.
For the compound `Cc1nn(-c2ccccc2)nc1C(=O)Nc1nnc(C(F)(F)F)s1`, the “hERG current change (%, negative = inhibition) at 1uM” value is on record as 14.6%.
Take `O=C(Nc1nonc1-c1ccc(Cl)cc1)c1ccco1`: the “hERG current change (%, negative = inhibition) at 1uM” value is 18.5%.
Turning to `CC(CCCC(C)(C)O)CC1C2=C(CCCC2=O)OC2=C1C(=O)CCC2` (centres unmarked), the “hERG current change (%, negative = inhibition) at 1uM” value amounted to 0.929%.
Regarding `CN(C)c1ncc(CN2CCC(C(=O)Nc3ccc(-n4cccn4)cc3)CC2)s1`, the “hERG current change (%, negative = inhibition) at 1uM” value was 1.18%.
For `O=C(O)c1ccccc1CSc1nc2ccccc2n1Cc1ccccc1C(=O)O` the value was 31.7%.
As to `CCOC(=O)Cc1csc(NC(=O)CN(C)S(=O)(=O)c2ccc3c(c2)CCC(=O)N3)n1`, the “hERG current change (%, negative = inhibition) at 1uM” value turned out to be 11%.
On to `Cc1ccc(NC(=O)CNCc2ccccc2Cl)cc1S(=O)(=O)N(C)C.O=C(O)C(=O)O`, for which the “hERG current change (%, negative = inhibition) at 1uM” value is on record as 2.66%.
As to `Cc1cccc(CSCCNC(=O)CCSc2ccccc2)c1`, the “hERG current change (%, negative = inhibition) at 1uM” value came out at 13.3%.
For the compound `S=C(NNC(=S)NC1CC2C=CC1C2)NC1CC2C=CC1C2` (centres unmarked), the “hERG current change (%, negative = inhibition) at 1uM” value came to 13.2%.
As to `Cc1cc(C)c(NC(=O)CNC(=O)c2ccccc2OCc2c(C)noc2C)c(C)c1`, the “hERG current change (%, negative = inhibition) at 1uM” value was -6.31%.
For `Cc1ccc2cc(C3CC(c4ccco4)=NN3S(C)(=O)=O)c(Cl)nc2c1` (centres unmarked), the “hERG current change (%, negative = inhibition) at 1uM” value worked out at 2.41%.
For `CCNS(=O)(=O)c1ccc(CCC(=O)O)cc1`, the “hERG current change (%, negative = inhibition) at 1uM” value was found to be 2.85%.
For the compound `CCOc1ccc(C(C)=O)cc1CSc1nc(C)cc(C)n1`, the “hERG current change (%, negative = inhibition) at 1uM” value worked out at 0.705%.
As for `Cc1ncc([N+](=O)[O-])n1CCO`, the “hERG current change (%, negative = inhibition) at 1uM” value is on record as 15.2%.
With `Cc1ccc(C(=O)NC(=S)N2CCN(c3ccccc3F)CC2)cc1`, the “hERG current change (%, negative = inhibition) at 1uM” value came to 1.36%.
The value for `CC(/C=C/c1ccccc1)=N\NC(=O)c1cc(C)nc2ccccc12` was 11.2%.
For `COc1ccc(NC(=O)CN2CCN(C(=O)c3ccco3)CC2)c(OC)c1` the value was 1.5%; for `O=C(O)c1cc2cccc(S(=O)(=O)N3CCOCC3)c2cc1O`, 13.5%; for `O=C(Cc1ccc(NS(=O)(=O)c2ccc(F)cc2)cc1)NCc1ccccc1`, -3.1%.
On to `COc1ccc(C(=O)NCc2ccc3c(c2)cc(C)n3C)cc1`, for which the “hERG current change (%, negative = inhibition) at 1uM” value was 6.47%.
The value for `CC(=O)c1ccc(S(=O)(=O)Nc2cccc(-n3cnnn3)c2)cc1` was 14%; that for `CCOC(=O)c1[nH]c2ccccc2c1NC(=O)Nc1ccc(OC)cc1` was 0.729%; that for `O=C(Cn1cnc2ccccc2c1=O)NCc1cccs1` was 11.4%.
For `Cc1ccc(-c2c(C(=O)N/N=C/c3cccc(Cl)c3)nnn2-c2nonc2N)cc1` the value was 14.7%; for `C=CCn1c(SCC(=O)Nc2cc(C)ccc2C)nnc1-c1cnccn1`, 0.11%.
For the compound `CCOC(=O)CSCC(=O)Nc1ccc(S(=O)(=O)N2CCCCC2)cc1`, the “hERG current change (%, negative = inhibition) at 1uM” value amounted to 15.1%.
As to `O=C(NCc1ccco1)C(Cc1ccccc1)N1C(=O)C2C3C=CC(C3)C2C1=O` (centres unmarked), the “hERG current change (%, negative = inhibition) at 1uM” value was 3.13%.
`O=C(CSc1nncn1-c1ccccc1)Nc1cccc(S(=O)(=O)N2CCCCC2)c1`: the “hERG current change (%, negative = inhibition) at 1uM” value is 19.8%.
With `CCc1nnc(NC(=O)CN2C(=O)c3ccccc3S2(=O)=O)s1`, the “hERG current change (%, negative = inhibition) at 1uM” value is 10.6%.
For `COCCn1c(SCC(=O)NC2CCCC2)nc2cccnc21` the value was 6.19%; for `O=C(/C=C/c1cccs1)Nc1nccs1`, 11.2%.
As for `CN(c1ccccc1)S(=O)(=O)c1ccc(NC(=O)c2nc(S(C)(=O)=O)ncc2Cl)cc1`, the “hERG current change (%, negative = inhibition) at 1uM” value worked out at 16%.
For `CN1CCc2c(sc3c2c(NCc2ccco2)nc2nnnn23)C1` the value was -72.8%; for `Cc1ccc(S(=O)(=O)NCCOCCNS(=O)(=O)c2ccc(C)cc2)cc1`, -2.18%.
The value for `Cc1ccc(OCC(=O)Nc2cccc3nsnc23)c(C)c1` was 12.7%; that for `CCN1CCN(c2nc3c(C)cccn3c(=O)c2/C=C(\C#N)S(=O)(=O)c2ccccc2)CC1` was 7.48%; that for `CC(=O)Nc1cccc(N)c1` was 8.08%.
On to `Cc1cccc(CC(=O)Nc2ccc(C(=O)N3CCCCC3)cc2)c1`, for which the “hERG current change (%, negative = inhibition) at 1uM” value is 19%.
`CC(C)C(NC(=O)c1ccccc1)C(=O)NCc1ccccn1` (centres unmarked): the “hERG current change (%, negative = inhibition) at 1uM” value was 11.7%.
Take `COc1ccccc1/C=C(\C)C(=O)c1c(C)cc(C)[nH]c1=O`: the “hERG current change (%, negative = inhibition) at 1uM” value is reported as 9.79%.
As to `Cc1nc(OCc2ccccc2)c2ccccc2n1`, the “hERG current change (%, negative = inhibition) at 1uM” value worked out at 7.6%.
In the case of `O=C(Cc1ccc(F)cc1)Nc1cccc(S(=O)(=O)N2CCCC2)c1`, the “hERG current change (%, negative = inhibition) at 1uM” value is listed as -4.72%.
As for `COc1ccc(-c2noc(CSc3nnc(-c4ccccc4)n3C)n2)cc1`, the “hERG current change (%, negative = inhibition) at 1uM” value is recorded as -4.91%.
For the compound `O=[N+]([O-])c1ccccc1CCc1cnc(Cl)s1`, the “hERG current change (%, negative = inhibition) at 1uM” value amounted to 15.8%.
For `O=C(NCCN1CCN(C(=O)c2c(F)cccc2F)CC1)C(=O)Nc1ccc(Cl)cc1` the value was 3.99%.
The value for `COc1cccc(-c2nc(CS(=O)(=O)CC(=O)N3CCOCC3)c(C)o2)c1` was 8.98%.
Consider `CSc1ccc(-c2nc(CSCC(=O)N3CCOCC3)c(C)o2)cc1`, for which the “hERG current change (%, negative = inhibition) at 1uM” value was -8.01%.
As for `COc1ccc(C(=O)/C=C/N2CCCCC2)cc1OC`, the “hERG current change (%, negative = inhibition) at 1uM” value was 12.1%.
`Cc1cccn2c(=O)c3cc(C(=O)N(C)C)n(C)c3nc12`: the “hERG current change (%, negative = inhibition) at 1uM” value came out at 10.8%.
With `Nc1nc(NCc2ccccc2Cl)n(-c2ccccc2)n1`, the “hERG current change (%, negative = inhibition) at 1uM” value turned out to be 18.7%.
As for `O=C(Nc1ccccc1)Nc1ccc(C(F)(F)F)cn1`, the “hERG current change (%, negative = inhibition) at 1uM” value amounted to 2.25%.
Regarding `O=C(Nc1ccccc1Oc1cccnc1)C1CCCN(Cc2ccccc2O)C1` (centres unmarked), the “hERG current change (%, negative = inhibition) at 1uM” value was 3.3%.
Take `COc1ccc2cc(C(=O)C3CCCN(C(=O)c4cc(=O)n(C)c(=O)n4C)C3)ccc2c1` (centres unmarked): the “hERG current change (%, negative = inhibition) at 1uM” value is reported as 3.22%.
Regarding `O=C(NCCn1c(C(F)(F)F)nc2ccccc21)[C@H]1CCCN1c1nc(CN2CCCCC2)cs1`, the “hERG current change (%, negative = inhibition) at 1uM” value stood at 9.26%.
Turning to `CCOC(=O)N1CCN(c2c(NCCc3ccccc3)c(=O)c2=O)CC1`, the “hERG current change (%, negative = inhibition) at 1uM” value was found to be 6.45%.
Consider `O=C(Nn1cnc2ccccc2c1=O)c1ccccc1`, for which the “hERG current change (%, negative = inhibition) at 1uM” value is given as 13.7%.
Consider `Cc1cc(NC(=O)C(C)SCC(=O)OCC(=O)N(Cc2ccccc2)C(C)(C)C)no1` (centres unmarked), for which the “hERG current change (%, negative = inhibition) at 1uM” value stood at 1.19%.
The value for `Nc1cccc(-c2nc3ccc(C(=O)c4ccccc4)cc3[nH]2)c1` was 13.2%; that for `O=C(Nc1cc(S(=O)(=O)N2CCOCC2)ccc1Cl)C(=O)c1c(-c2ccccc2)cc2ccccn12` was -0.95%; that for `CCC1CCCCN1CCCNC(=O)C1CC(=O)N(CCc2ccccc2)C1` (centres unmarked) was 13.6%.
`O=C(NCc1ccccc1)C(c1ccco1)N(C(=O)c1csnn1)C1CC1` (centres unmarked): the “hERG current change (%, negative = inhibition) at 1uM” value was found to be 11.6%.
Regarding `CC1CCN(c2nc3ccccn3c(=O)c2C=O)CC1`, the “hERG current change (%, negative = inhibition) at 1uM” value is recorded as 9.92%.
As to `Cc1cc(C(=O)COC(=O)C2=NN(c3ccccc3)C(=O)CC2)c(C)n1CC(F)(F)F`, the “hERG current change (%, negative = inhibition) at 1uM” value is on record as 4.15%.
For `O=C1/C(=N\O)Cc2ccccc21` the value was 8.62%; for `C=CCNC(=O)C(=O)N/N=C/c1cccc(Br)c1`, 9.95%.
Regarding `O=C(Oc1cccc(C(=S)N2CCOCC2)c1)c1cc([N+](=O)[O-])cc([N+](=O)[O-])c1`, the “hERG current change (%, negative = inhibition) at 1uM” value is on record as 6.81%.
Turning to `Cc1ccc(C(=O)N2CCC(C(=O)c3ccc(Cl)cc3)CC2)cc1`, the “hERG current change (%, negative = inhibition) at 1uM” value was -11.3%.
On to `CC1(C)CC(=O)C(N=Nc2ccc(S(=O)(=O)N3CCOCC3)cc2)=C(O)C1`, for which the “hERG current change (%, negative = inhibition) at 1uM” value is 23.9%.
For `O=C(COc1ccc(Cl)cc1Cl)N/N=C/c1cccnc1`, the “hERG current change (%, negative = inhibition) at 1uM” value was 7.96%.
For `NC(=O)c1nsc(C(=O)N(Cc2cccnc2)C(C(=O)NC2CCCC2)c2ccc(F)cc2)c1N` (centres unmarked), the “hERG current change (%, negative = inhibition) at 1uM” value is given as 14.6%.
Take `CS(=O)(=O)N(CC(N)=O)c1ccc(F)c(Cl)c1`: the “hERG current change (%, negative = inhibition) at 1uM” value was 6.29%.
Take `O=C(CSc1ncccc1C(=O)O)Nc1ccc2c(c1)OCCO2`: the “hERG current change (%, negative = inhibition) at 1uM” value is given as 3.9%.
`COc1cccc(OCCSc2nc(C)c(Cc3ccccc3)c(=O)[nH]2)c1`: the “hERG current change (%, negative = inhibition) at 1uM” value is listed as 16.1%.
As to `Cc1cccc(NS(=O)(=O)c2nnc(NC(=O)CC(C)C)s2)c1`, the “hERG current change (%, negative = inhibition) at 1uM” value was determined as 13.5%.
`O=c1cc(N2CCCCC2)c(-c2ccccc2)nn1Cc1ccccc1Cl`: the “hERG current change (%, negative = inhibition) at 1uM” value turned out to be 1.54%.
For `CC1(C)CC2(CCO1)C(Nc1ccccc1)=NC(=S)N2c1ccccc1` (centres unmarked) the value was 10.4%; for `CCCn1nc(NC(=O)c2ccco2)c2cc3ccccc3nc21`, -10.1%; for `O=c1[nH]c2ccccc2o1`, 17%.
For the compound `COCC(=O)N(C)c1nnc(-c2cnc(C)cn2)s1`, the “hERG current change (%, negative = inhibition) at 1uM” value stood at 10.3%.
As for `CCCCNC(=S)N(CCN(CC)CC)Cc1cc2cc3c(cc2[nH]c1=O)OCO3`, the “hERG current change (%, negative = inhibition) at 1uM” value was -1%.
The value for `Cc1cc(C)c(C)c(S(=O)(=O)N2CCN(C)CC2)c1C` was 10%.
As for `CCC(=O)C(C#N)(c1ccc(OC)c(OC)c1)C(C)C` (centres unmarked), the “hERG current change (%, negative = inhibition) at 1uM” value is recorded as 4.06%.
Consider `COc1ccc(N(CC(=O)N/N=C/c2cc(OC)ccc2OC)S(=O)(=O)c2ccccc2)cc1`, for which the “hERG current change (%, negative = inhibition) at 1uM” value amounted to 10.4%.
The value for `CNC(=O)c1ccccc1Sc1cccc2cccc(C(=O)O)c12` was 9.98%.
